Among all 310,000 compounds or so, about 2,200 (0.71%) showed an effect of 50% or more. The effect is printed as a negative number. The list shows a part of the results.
The compounds below were run against human ether-à-go-go-related gene (hERG) potassium channel (human, UniProt Q12809) (assay: primary screen, population patch clamp on CHO cells stably expressing hERG).
Sequence of human ether-à-go-go-related gene (hERG) potassium channel (Q12809 whole entry, looked up): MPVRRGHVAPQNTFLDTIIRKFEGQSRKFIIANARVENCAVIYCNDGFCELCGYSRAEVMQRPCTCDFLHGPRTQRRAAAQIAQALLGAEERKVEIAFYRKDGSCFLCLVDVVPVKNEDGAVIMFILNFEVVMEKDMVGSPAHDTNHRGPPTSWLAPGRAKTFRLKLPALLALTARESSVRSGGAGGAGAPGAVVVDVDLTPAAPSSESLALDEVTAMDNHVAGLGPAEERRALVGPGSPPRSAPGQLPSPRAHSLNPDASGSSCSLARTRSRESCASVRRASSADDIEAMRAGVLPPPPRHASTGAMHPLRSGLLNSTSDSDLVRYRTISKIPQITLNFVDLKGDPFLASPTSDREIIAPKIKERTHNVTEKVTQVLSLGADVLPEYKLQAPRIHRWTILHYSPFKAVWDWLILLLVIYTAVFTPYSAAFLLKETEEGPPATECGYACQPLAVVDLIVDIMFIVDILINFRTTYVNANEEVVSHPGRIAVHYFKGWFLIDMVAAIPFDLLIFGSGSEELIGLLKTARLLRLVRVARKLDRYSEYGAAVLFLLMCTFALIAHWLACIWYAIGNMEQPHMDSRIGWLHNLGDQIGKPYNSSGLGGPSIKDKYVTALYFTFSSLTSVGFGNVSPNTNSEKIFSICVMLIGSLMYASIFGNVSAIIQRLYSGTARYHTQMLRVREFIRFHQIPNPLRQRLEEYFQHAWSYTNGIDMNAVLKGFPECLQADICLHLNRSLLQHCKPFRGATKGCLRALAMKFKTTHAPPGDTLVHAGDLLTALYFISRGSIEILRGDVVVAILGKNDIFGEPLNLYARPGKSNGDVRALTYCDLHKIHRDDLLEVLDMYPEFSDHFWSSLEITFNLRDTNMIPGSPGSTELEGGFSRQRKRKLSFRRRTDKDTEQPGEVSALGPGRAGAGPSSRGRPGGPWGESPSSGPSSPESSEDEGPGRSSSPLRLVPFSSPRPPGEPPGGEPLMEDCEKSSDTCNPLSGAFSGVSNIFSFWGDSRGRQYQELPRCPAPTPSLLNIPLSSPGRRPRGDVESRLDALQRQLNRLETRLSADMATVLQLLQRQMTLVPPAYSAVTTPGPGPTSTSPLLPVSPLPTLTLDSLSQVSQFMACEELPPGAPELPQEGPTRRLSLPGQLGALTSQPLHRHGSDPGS

In order of rising “hERG current change (%, negative = inhibition) at 1uM” value:
1. Cc1ccc(C(CNS(=O)(=O)c2ccc(C)cc2)N2CCN(C)CC2)cc1 (stereo not shown)  -27.8%
2. O=C(N/C(=C/c1ccc(Br)cc1)C(=O)N1CCCC1=O)c1ccco1  -11.1%
3. CC1(C)CC(=O)N(CC(=O)N2CCN(c3ncccn3)CC2)c2ccccc2S1(=O)=O  -8.94%
4. CC(Oc1ccccc1F)c1nnc(SCC(=O)NCc2ccc3c(c2)OCO3)o1 (stereo not shown)  -8.19%
5. CCc1nn(CC(=O)N2CCN(c3ccc(OC)cc3)CC2)c(=O)c2cc3occc3n12  -5.86%
6. O=C(CSc1nnc(C2CC2)n1Cc1ccccc1)N1CCN(S(=O)(=O)c2ccccc2)CC1  -3.97%
7. CCCSc1nc(=O)n2cc(C)ccc2n1  -3.83%
8. CCOC(=O)C1CCN(Cc2nc3ccc([N+](=O)[O-])cc3c(=O)n2-c2ccc(OC)cc2OC)CC1  -3.1%
9. Cc1cc(S(=O)(=O)NCCc2ccccc2)c(C)s1  -2.86%
10. O=C(C1=C[C@H](c2ccc(Br)cc2)C[C@H](OCc2ccc(CO)cc2)O1)N1CCN(Cc2ccc3c(c2)OCO3)CC1  -2.62%
11. Cc1cc(NC(=O)Nc2cc(Cl)ccc2C)no1  -1.78%
12. O=C(Nc1ccccc1O)/C(=C\c1ccccc1)NC(=O)c1ccccc1  -0.376%
13. Cc1ccc(Oc2ccc(OCC(=O)NC(C)C(=O)O)cc2)cc1 (stereo not shown)  -0.182%
14. O=C(Nc1ccncc1)c1cc(F)cc(F)c1  0.493%
15. Cc1cc(C)c(S(=O)(=O)N2CCCC2CNC(=O)c2ccc3c(c2)OCO3)c(C)c1 (stereo not shown)  0.57%
16. Cc1cc(=S)[nH]c(=S)[nH]1  1.2%
17. Cc1nn(Cc2cccc(C(=O)NC34CC5CC(CC(C5)C3)C4)c2)c(C)c1Br  1.8%
18. CN1CCN(c2ccc(NC(=O)N3CCc4ccccc43)cc2)CC1  2.29%
19. C=CCNC(=O)c1onc(CS(=O)(=O)c2cc(C)cc(C)c2)c1C(=O)NCC=C  2.36%
20. COC(=O)CC1=NC(=O)CS1  2.46%
21. Cc1nnc(SCC(=O)N2CCOCC2)s1  2.63%
22. C[C@H](NC(=O)OC(C)(C)C)C(=O)N/N=C/c1cccc2nccnc12  3.49%
23. COCC(C)NC(=O)Cn1c(SCc2ccccc2)nc2ccccc21 (stereo not shown)  3.78%
24. c1ccc2sc(C3CCCNC3)nc2c1 (stereo not shown)  3.96%
25. O=C(NCCc1ccc(Cl)cc1)c1cnc2n(c1=O)CCS2  4.37%
26. CN(C)C1(CNC(=O)C2CCC(=O)N(CCc3ccc(Cl)cc3)C2)CCCCC1 (stereo not shown)  4.39%
27. Cc1cc(O)c(CN2CCN(c3ccccc3)CC2)cc1C  4.47%
28. Cc1ccc2[nH]c(CN3CCN(C)C(CCO)C3)c(C)c2c1 (stereo not shown)  4.47%
29. Cc1ccc(-c2nnc3n2N=C(c2ccc(Br)cc2)CS3)cc1  4.56%
30. CCC(=O)N1C(=O)C2(Nc3ccccc3N2)c2ccccc21  4.7%
31. CCCN(CCC)S(=O)(=O)c1cc2c3c(c1)CCN3C(=O)CC2  4.74%
32. COc1cc(C(=O)Nc2nnc(SC)s2)c([N+](=O)[O-])cc1OC  4.89%
33. C=CCN1C(=O)c2ccc(C(=O)N3CCN(S(=O)(=O)c4ccc(C(C)C)cc4)CC3)cc2C1=O  4.96%
34. CCCCOc1nc2c(c(=O)n(C)c(=O)n2C)n1C  5.25%
35. CC(=O)N/C(=C/c1ccc2c(c1)OCO2)C(=O)NC(Cc1ccccc1)C(=O)O (stereo not shown)  5.46%
36. CN(C)S(=O)(=O)N1CCC(Oc2cccc(C(=O)NCCCC3CCCC3)c2)CC1  6.11%
37. O=C(NC(C(=O)NCCN1CCOCC1)C12CC3CC(CC(C3)C1)C2)C1CCCCC1 (stereo not shown)  6.22%
38. CN(C)CCN(C(=O)c1cccc2ccccc12)c1nc2cc3c(cc2s1)OCO3.Cl  6.25%
39. COc1ccc(CN2CCN(C(=O)CC(C)C)CC2)cc1Br  6.71%
40. COc1ccc(NS(=O)(=O)c2ccc(O)c(NC(=O)c3ccc(S(=O)(=O)N4CCCC4)cc3)c2)cc1  7.18%
41. CN(CC(=O)Nc1ccccc1Cl)C(=O)COc1cccc2c1OC(C)(C)C2  7.48%
42. NC(=O)C(C(=O)/C=C/c1ccc(Cl)cc1)=C1SCCS1  8.02%
43. Cc1ccc(NNC(=O)c2c(F)cccc2Cl)cc1C  8.08%
44. O=C(CSc1n[nH]c(-c2cccnc2)n1)Nc1ccc([N+](=O)[O-])cc1  8.42%
45. COc1ccc(OC)c(S(=O)(=O)CC(O)CS(=O)(=O)c2ccccc2)c1 (stereo not shown)  9.24%
46. C=COCCn1c(C)c(C(C)=O)c2cc(O)ccc21  9.33%
47. c1ccc(CSc2snnc2-c2ccccc2)cc1  10.1%
48. Cc1ccc(C(=O)N2CC(C)OC(C)C2)cc1[N+](=O)[O-] (stereo not shown)  10.2%
49. Cn1c(SCC(=O)N/N=C/c2cc([N+](=O)[O-])ccc2O)nnc1-c1ccccc1  10.3%
50. CCC(C)Oc1cccc(C(=O)Nc2ccccc2N2CCOCC2)c1 (stereo not shown)  10.4%
51. CCC(C)(C)NC(=O)CN(Cc1ccc2c(c1)OCO2)C(=O)CCC(=O)Nc1nccs1  10.5%
52. COCCSc1ccccc1C(=O)N1CCN(Cc2ccccc2)CC1  10.7%
53. O=C(Cn1ccc(C(F)(F)F)n1)N/N=C/c1cccs1  10.7%
54. CCc1ccc(OCC(=O)Nc2ccc3[nH]ncc3c2)cc1  10.7%
55. O=c1[nH]c(=O)c2ncc(-c3ccc(Cl)cc3)nc2[nH]1  11%
56. CC[N+](C)(CC)CCC/C(=N/O)C(O)(c1ccccc1)c1ccccc1.[I-]  11.1%
57. Cc1nc(NC(=O)CCc2ccccc2)ccc1Br  11.1%
58. NS(=O)(=O)c1ccc(NC(CNS(=O)(=O)c2ccccc2)c2ccccc2)cc1 (stereo not shown)  11.1%
59. CSc1nnc(C)c(=O)n1COC(=O)COc1ccccc1C  11.3%
60. CC(=O)c1ccc2noc(-c3ccc(F)cc3)c2c1  11.3%
61. O=[N+]([O-])c1cccc(NC2=NCCC2)c1  11.3%
62. Cc1cc(Cl)ccc1OCC(=O)NCCCCc1ccccc1  11.6%
63. COc1cc(/C=C2\CCCc3c2nc2ccccc2c3C(=O)O)cc(Br)c1O  12.1%
64. O=C(Cc1ccccc1)NCC(=O)OCc1cccc([N+](=O)[O-])c1  12.2%
65. O=C(NCC1CCCN(C(=O)CN2CCCCC2)C1)c1ccccc1Cl (stereo not shown)  12.5%
66. CCOc1ncccc1C(=O)NNC(=O)c1ccccc1-n1cccc1  12.9%
67. O=C(COC(=O)c1ccccc1-n1cnnn1)c1ccc(F)c(F)c1  13%
68. O=C(NC(=S)Nc1ccc2[nH]c(=O)[nH]c2c1)c1cc(Br)ccc1Cl  13.1%
69. Cc1cccc(CC(C)NC(=O)c2cc(COc3ccc(C)c(C)c3)on2)n1 (stereo not shown)  13.2%
70. Oc1ccc(N=Nc2ccc3c(c2)OCO3)c2ccccc12  13.2%
71. O=C1C2(Cl)C3(Cl)C4(Cl)C(Cl)(Cl)C5(Cl)C3(Cl)C1(Cl)C5(Cl)C24Cl (stereo not shown)  13.3%
72. COc1ccc(S(=O)(=O)Nc2cccc(Cl)c2)cc1OC  13.3%
73. CC(C)(C)NC(=O)C1Cc2ccccc2CN1 (stereo not shown)  13.4%
74. CCn1c(C)cc(C)c(C#N)c1=O  13.7%
75. S=c1[nH]nc(-c2ccccc2)n1/N=C/c1cccc(Cl)c1  14.3%
76. Cc1cc(C(=O)NCc2ccco2)sc1C  14.7%
77. C/C(=N\Nc1ccc2nncn2n1)c1ccc(Br)s1  14.7%
78. O=C(O)/C=C/C(=O)Nc1cc(F)ccc1F  14.8%
79. COc1ccccc1NS(=O)(=O)c1cc(NC(=O)C2CCC2)ccc1N1CCCCC1  15.1%
80. Cc1ccc(-c2cc(NC(=O)c3ccccc3)on2)cc1  15.1%
81. Cc1cc(OCC(=O)NC2CC2)c2c(C)c(C)c(=O)oc2c1  15.3%
82. O=C(CN1C(=O)NC2(CCCCCC2)C1=O)Nc1ccc2c(c1)CCC2  15.7%
83. O=C(NC1=NCCS1)C1CCCCC1  15.9%
84. O=C(CSc1ncccn1)Nc1cc(Cl)ccc1[N+](=O)[O-]  16.5%
85. CCOc1ccc(NS(=O)(=O)c2ccc(-c3coc(C)n3)cc2)cc1  17.5%
86. COc1cc(SC)ccc1C(=O)N(CC(=O)Nc1ccccc1Br)Cc1ccco1  17.9%
87. CN(c1ccc(C(=O)N2CCOCC2)cc1)S(=O)(=O)c1cccs1  18.3%
88. CSc1ccc(S(=O)(=O)N2CCC(C(=O)NCc3ccco3)CC2)cc1  18.7%
89. COC(=O)c1ccncc1C(=O)Nc1ccc(F)cc1  19.4%
90. CCOC(=O)c1c([N+](=O)[O-])c(C)[nH]c(=O)c1C#N  20.7%
91. CC1(C)Cc2c(sc(NC(=O)C(=O)N3CCCCC3)c2C(N)=O)CO1  21.1%

— publication PMC4336329 (PLoS ONE, 2015)
